Source: PubChem BioAssay AID504333 (National Center for Advancing Translational Sciences (NCATS), 2011)
The whole screen tested about 360,000 compounds, of which about 16,000 (4.4%) were called active. The inconclusive results got no clear call from the source; some entries with a clear call stand among them for comparison. Calls follow the shape of the dose curve; as a rule, active = well fitted inhibition curve with a large enough effect; inconclusive = small, poorly fitted or top-dose-only effect; inactive = no such curve, though single readings can be large or run the other way. Where the call is inconclusive, the potency comes from a doubtful curve fit.
Also: nearly all actives have a fitted effect of over 60% in size.
Potency is read from the fitted curve at half-maximal effect; tags tell the direction and shape of the fitted curve.

Each compound was assayed against Bromodomain adjacent to zinc finger domain protein 2B (Homo sapiens) (UniProt Q9UIF8) (assay: qHTS Assay for Inhibitors of BAZ2B). Conditions: AlphaScreen BAZ2B-H3K14Ac peptide displacement; series mostly up to 114 µM.
Sequence of UniProt Q9UIF8 (Q9UIF8 whole entry, looked up, the tested form may be a part): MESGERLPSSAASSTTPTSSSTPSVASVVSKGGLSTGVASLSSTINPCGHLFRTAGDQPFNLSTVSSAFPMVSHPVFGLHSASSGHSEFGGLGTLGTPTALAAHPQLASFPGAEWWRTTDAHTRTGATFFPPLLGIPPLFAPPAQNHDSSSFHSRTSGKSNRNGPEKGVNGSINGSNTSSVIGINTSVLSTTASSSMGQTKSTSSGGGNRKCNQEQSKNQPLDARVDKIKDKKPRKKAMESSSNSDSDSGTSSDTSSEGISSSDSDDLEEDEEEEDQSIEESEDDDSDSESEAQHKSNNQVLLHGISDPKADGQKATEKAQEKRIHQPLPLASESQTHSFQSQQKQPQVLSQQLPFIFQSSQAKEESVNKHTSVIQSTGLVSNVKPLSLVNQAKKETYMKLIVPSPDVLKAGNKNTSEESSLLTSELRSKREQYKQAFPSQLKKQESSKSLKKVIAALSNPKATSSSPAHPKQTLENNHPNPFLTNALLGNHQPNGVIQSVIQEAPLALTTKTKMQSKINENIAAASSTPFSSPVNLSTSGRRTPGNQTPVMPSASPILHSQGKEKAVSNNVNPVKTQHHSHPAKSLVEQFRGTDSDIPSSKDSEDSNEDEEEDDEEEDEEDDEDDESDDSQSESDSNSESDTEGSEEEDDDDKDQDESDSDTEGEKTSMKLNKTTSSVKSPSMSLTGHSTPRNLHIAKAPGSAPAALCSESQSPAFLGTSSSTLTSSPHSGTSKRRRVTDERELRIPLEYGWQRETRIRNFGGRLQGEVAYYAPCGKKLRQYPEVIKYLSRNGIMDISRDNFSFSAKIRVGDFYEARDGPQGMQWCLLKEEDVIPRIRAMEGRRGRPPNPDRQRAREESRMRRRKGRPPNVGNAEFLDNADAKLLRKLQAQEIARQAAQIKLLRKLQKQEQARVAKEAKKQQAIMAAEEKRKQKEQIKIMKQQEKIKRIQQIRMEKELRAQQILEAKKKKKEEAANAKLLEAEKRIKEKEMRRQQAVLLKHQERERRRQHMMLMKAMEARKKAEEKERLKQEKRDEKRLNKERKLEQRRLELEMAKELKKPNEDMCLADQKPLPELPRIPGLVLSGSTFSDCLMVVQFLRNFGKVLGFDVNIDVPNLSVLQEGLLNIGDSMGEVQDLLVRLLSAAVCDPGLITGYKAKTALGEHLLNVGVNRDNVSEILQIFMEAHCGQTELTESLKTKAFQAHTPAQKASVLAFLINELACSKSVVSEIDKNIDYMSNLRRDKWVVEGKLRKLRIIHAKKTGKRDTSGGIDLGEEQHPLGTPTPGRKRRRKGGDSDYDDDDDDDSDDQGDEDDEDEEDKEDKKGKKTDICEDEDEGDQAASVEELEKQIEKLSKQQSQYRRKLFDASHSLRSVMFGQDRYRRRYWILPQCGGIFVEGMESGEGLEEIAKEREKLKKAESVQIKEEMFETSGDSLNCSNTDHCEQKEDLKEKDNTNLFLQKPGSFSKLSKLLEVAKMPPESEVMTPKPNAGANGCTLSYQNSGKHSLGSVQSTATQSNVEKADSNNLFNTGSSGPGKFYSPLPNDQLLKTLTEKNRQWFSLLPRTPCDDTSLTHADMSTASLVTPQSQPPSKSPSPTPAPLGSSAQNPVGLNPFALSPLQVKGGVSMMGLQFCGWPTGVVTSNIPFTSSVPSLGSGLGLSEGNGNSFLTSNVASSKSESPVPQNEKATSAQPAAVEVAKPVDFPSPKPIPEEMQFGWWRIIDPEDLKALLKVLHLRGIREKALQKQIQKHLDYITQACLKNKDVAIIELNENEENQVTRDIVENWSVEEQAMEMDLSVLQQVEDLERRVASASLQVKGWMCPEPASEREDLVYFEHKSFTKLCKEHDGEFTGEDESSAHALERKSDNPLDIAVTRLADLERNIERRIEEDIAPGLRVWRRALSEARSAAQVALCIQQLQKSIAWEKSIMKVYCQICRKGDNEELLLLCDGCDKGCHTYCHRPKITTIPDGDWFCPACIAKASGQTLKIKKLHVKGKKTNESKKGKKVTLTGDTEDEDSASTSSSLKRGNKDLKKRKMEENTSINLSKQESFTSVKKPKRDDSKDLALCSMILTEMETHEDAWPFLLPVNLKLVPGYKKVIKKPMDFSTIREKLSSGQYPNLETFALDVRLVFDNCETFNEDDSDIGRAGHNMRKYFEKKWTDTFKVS
Procedure, shortened: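 Multi-concentration screen (max 110 uM) measuring displacement of acetylated histone H3 peptide from BAZ2B by AlphaScreen, using 50 nM protein, 50 nM peptide and 10 ug/mL streptavidin donor plus Ni-chelate acceptor beads.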
With `CN(C)CCCN1C(=O)C(O)=C(C(=O)c2cc3ccccc3o2)C1c1ccccc1` (centres undefined) the Potency was inconclusive: 70.8 µM [inhibitor, single point]. For `CCOc1cc(/C=N/Nc2cc(C)nc(-n3nc(C)cc3C)n2)ccc1O`, the Potency was inconclusive: 14.1 µM [inhibitor, partial curve]. `CCOc1ccc(NCc2nc3ccccc3n2CCOc2ccccc2)cc1` was tested, and the Potency was active: 11.2 µM. In the case of `C#CCOCCOCCOCCNc1nc(N2CCN(C(=O)[C@H](Cc3ccc(O)cc3)n3cc([C@@H](N)C(C)CC)nn3)CC2)nc(N2CCN(C(=O)[C@H](Cc3cc4ccccc4[nH]3)n3cc([C@@H](N)C(C)CC)nn3)CC2)n1` (some centres undefined), the Potency is reported as active: 28.2 µM. For `Cc1nc2c3ccccc3nc(NNC(=O)CCC(=O)NCCN3CCN(c4ccccc4)CC3)n2n1`, the Potency was inconclusive: 79.4 µM [inhibitor, single point]. For `O=C(Nc1ccc(F)cc1)c1ccccc1Oc1ccc(C(F)(F)F)cc1[N+](=O)[O-]`, the Potency was inconclusive: 44.7 µM [inhibitor, partial curve]. `CN(C)/C=C(\C#N)C(=O)N/N=C/c1ccc(Cl)cc1` was tested, and the Potency was “inactive”. With `c1cc2c(cc1C1CCCCC1)c1c3n2CCCNC3CCC1` (centres undefined) the Potency was active: 35.5 µM. In the case of `CCOC(=O)/C=C/[C@H]1CCc2cccc(Cl)c2O1`, the Potency is reported as “inactive”. For `CCCn1c(C(C)Nc2nc(C)cs2)nc2cc(Cl)c(Cl)cc21` (centres undefined), the Potency was inconclusive: 50.1 µM [inhibitor, partial curve]. `O=C(CSc1nnnn1C1CCCCC1)Nc1ccccc1F` was tested, and the Potency was “inactive”. With `Cc1cc(C)nc(Sc2ncnc(N)c2[N+](=O)[O-])n1` the Potency was inconclusive: 79.4 µM [inhibitor, partial curve]. For `COc1cc(/C=C2/C(=O)ON=C2C)ccc1OCc1ccccc1F`, the Potency was inconclusive: 89.1 µM [inhibitor, single point]. For `Cc1ccc(CSc2oc(-c3ccco3)nc2S(=O)(=O)c2ccc(C)cc2)cc1`, the Potency was “inactive”. In the case of `CCCN(CCC)C(=O)Cn1c(=O)n(-c2ccccc2)c(=O)c2c3c(sc21)CCCC3`, the Potency is reported as “inactive”. For `COc1ccc(C2c3c(ncn(CCN4CCOCC4)c3=N)Oc3ccc4ccccc4c32)cc1OC` (centres undefined), the Potency was “inactive”. For `CC1OC(OC2C(Oc3c(-c4ccc(O)cc4)oc4cc(O)cc(O)c4c3=O)OC(COC3O[C@@H](C)[C@H](O)[C@@H](O)C3O)C(O)C2O)C(O)C(O)C1O` (some centres undefined), the Potency was “inactive”. `COc1ccc(CCN(Cc2nc3ccccc3c(=O)[nH]2)C(=O)C2CC2)cc1` was tested, and the Potency was inconclusive: 79.4 µM [inhibitor, single point]. With `CC(OC(=O)c1ccc(F)cc1)C(=O)Nc1nc(-c2cccc([N+](=O)[O-])c2)cs1` (centres undefined) the Potency was inconclusive: 89.1 µM [inhibitor, single point].
